Assay results as given in the supplement of paper PMC11417369.
± gives the standard deviation of the averaged measurements. This is one part of the list.

Test system: PfAP2-EXP AP2 domain (GST-tagged)
Test: gcPBM binding intensity (ln(normalized median fluorescence intensity)); higher = stronger DNA binding
Method in brief: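 Plasmodium falciparum DNA-binding domains carrying a GST tag were expressed in E. coli and applied for 1 h, at about 25 μg on average, to an Agilent 4 × 180k array. The array held primer-extended double-stranded 36-bp intergenic genomic probes together with negative controls, and binding took place in 1× PBS with 1% milk, 0.2 mg/ml BSA, 0.5% salmon testes DNA and 0.03% Triton X-100. An Alexa488 anti-GST antibody detected bound protein, and the array was scanned at 488 nm. Binding intensity is taken as the highest Masliner-normalised natural-log median intensity across replicate spots of either probe orientation.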

Sequence | gcPBM binding intensity (ln)
TTTTCTTTTTCTTGTACACACATAATATGGATGAAA [CACACA_site808] | 8.81 ± 0.5
AATTTTTTTTAATGATGTACTTTTTGAAAATAAACT [XGTACX_site4221] | 8.36 ± 0.18
ATATATATATATATTTATTCATATATTTTTTGTCTT [TGCATGCA_negctrl_site58] | 9.99 ± 0.12
TTTTTATTTTTTCAGTGTACATTTAAATTATCTTAT [XGTACX_site3905] | 8.77 ± 0.42
TAAAGAAACGCATCGACGCACACTACAAAATAAAAA [CACACA_site1348] | 8.57 ± 0.61
TATAAATATCTGAATTGTACAGGTGAAAAAAAAAAT [XGTACX_site1867] | 8.88 ± 0.51
TTTTTTATTATTATTATTTTTTATGTATAATAATGT [CACACA_negctrl_site631] | 8.34 ± 0.45
AAATAATTTATGCATACACACATATATATATATATA [CACACA_site4020] | 10.1 ± 0.61
TTACTTTTTTTTTTATGTACTTATATTTTTTACACT [XGTACX_site3503] | 8.81 ± 0.6
TATGAATACATTTGTTGTACTTAAATTTCCTTTATT [XGTACX_site5374] | 8.54 ± 0.31
TAGATATATAAATACACACACATACACAAAAAAAAA [CACACA_site7652] | 8.62 ± 0.56
ATATATATATATATATATATAATAAAAGATCATTTA [XGTACX_negctrl_site371] | 10.2 ± 0.26
ATAATAAAAAGAAAAAGTACAAATGATTATGTTTGA [XGTACX_site3615] | 9.27 ± 0.49
CAAGTATTATATTGCGCATGCAAAGAAGGACACAAA [TGCATGCA_site1024] | 9.78 ± 0.13
TTATCTAGTACATACATACACACAACCATGTTATGA [CACACA_site3988] | 8.47 ± 0.36
TTCTACATGAAGTTATAAATTAATATTTTAATTTAT [XGTACX_negctrl_site134] | 8.13 ± 0.37
AATAAATAAATAAGTACACACATATAAATATAAATA [CACACA_site6271] | 8.69 ± 0.27
TACTTTATTTTTTATACACACACAATATGTATATAT [CACACA_site9184] | 8.71 ± 0.36
GTATTTCTTTAATATACACACACCAAAACAAAAAAA [CACACA_site579] | 8.81 ± 0.4
TGTTATTCTGCATATACACACAAATAACAATTTAAA [CACACA_site6943] | 8.49 ± 0.33
TAAGATATAAAAAATGTGCACATTAAAGTATTAATT | 8.71 ± 0.3
TCTTATGATGGAATGTTAAATATTACATTTTGTTTA [TGCATGCA_negctrl_site503] | 8.28 ± 0.27
CAAAAAAAAAAAAAAACACACATTAAATTATAAAGA [CACACA_site2613] | 8.36 ± 0.64

Sequence | gcPBM binding intensity (ln)
TTTATATAGAAACACACACACAAAAAAAAAAAAAAA [CACACA_site2646] | 8.24 ± 0.52
TTACAAAAAAAAAGGCGCGGATGGGGGCAATAGCAA [CACACA_negctrl_site238] | 9.14 ± 0.28
ATGAACATCCAATATACACACATATATATTTATATT [CACACA_site829] | 8.58 ± 0.38
TAATGTTTCAAAATTTAATATACTACAAATATTATA [TGCATGCA_negctrl_site336] | 8.01 ± 0.41
AGAGTACAAGTAAATACACACATATATATGAAAATA [CACACA_site1079] | 8.64 ± 0.3
ATCACATTCCACGGTACACACTAAAAGAAAAATCAG [CACACA_site5907] | 8.68 ± 0.56
ATTTATATTTAATATACACACATTATTTTTTTATAT [CACACA_site574] | 8.53 ± 0.37
TACATAAATACATACACACACATATAACCAATGTAG [CACACA_site5243] | 8.73 ± 0.42
CACATATATACACATACACACACACCCATACACCCA [CACACA_site8505] | 8.77 ± 0.33
TTTACATTTTAGGAAGTGCATATAATAAATACTATC | 8.64 ± 0.12
ATATAATATTTTAGAGTGCACCGATAACAATAAATA [GTGCAC_site9754] | 9.4 ± 0.11
TATAATATGACAAGAAGTACATATATTTACATATAT [XGTACX_site1571] | 8.31 ± 0.39
AAAAGATAAAAAGAAGTGCATAATAGGAACAAATAT [GTGCAC_site9717] | 9.35 ± 0.45
CATTTCATTAATAAATGTACTTGTGAAGAGAAAAAG [XGTACX_site3115] | 8.66 ± 0.39
TATATGTGGGTTTTTTTTATGTGTTTTTCTTTTTTT [CACACA_negctrl_site936] | 8.51 ± 0.49
ACAAAATTTACAAAATGTACAAAATATACAAAATGT [XGTACX_site3543] | 8.34 ± 0.43
AATAATAAAATAAAAGTGCATTAATTATAATTCTTT [GTGCAC_site9491] | 8.68 ± 0.085
TTAAATATTTATATTTGTACACAATCAATCATACAC [XGTACX_site5793] | 8.67 ± 0.2
GAGGAAAAAAAAAAAAGTACATTATATAAGAAAATT [XGTACX_site2610] | 8.62 ± 0.33
TCTTTCTAAATCTTACAAATTACTAAAATATTTATA [CACACA_negctrl_site87] | 8.36 ± 0.45
AATTATAATAATAATAGTACATAAGTATATAAATAA [XGTACX_site2400] | 8.46 ± 0.31
TTGGTTTCTTGTTTTTGTACCCATAATTTGTAATAT [XGTACX_site1248] | 9.13 ± 0.5
AAAAAAAAAAAAAAAAGTACAAATTTAAAAATGTGT [XGTACX_site112] | 8.54 ± 0.099

Sequence | gcPBM binding intensity (ln)
CATAAATACAGTAACACACACAAAAAAATATGAATA [CACACA_site6066] | 8.89 ± 0.49
ATATATATATTATATGCACACTAATAAGACTATTTA [CACACA_site5880] | 9.125 ± 0.021
TGTTTTGTTATTTTTATTTATATAAATAAAGCTATA [GTGCAC_negctrl_site88] | 8.77 ± 0.33
TTGTTATGCATTGGTTGTACATAAGTATAAGTAATT [XGTACX_site5401] | 8.66 ± 0.35
ATATATATATTTTATTGTACAAAAAAAAAAAAAAAA [XGTACX_site6803] | 8.86 ± 0.33
AAAAAAAAAATATGTACACACATATAAAATACATAA [CACACA_site6869] | 8.56 ± 0.3
CCATTATACACAATATGTACATATATATAATCATTT [XGTACX_site7942] | 8.62 ± 0.33
TTTGTTTGTAAAATGTTGCACTTTCTTTTGCTGATA | 8.79 ± 0.37
ATAGGATTCTCAAAGTGTACTTGTCTACTGTAGTTT [XGTACX_site4202] | 8.43 ± 0.33
ACATATATATATATTACACACACACTAATAAAATAA [CACACA_site7920] | 8.74 ± 0.59
TTTCAAGAATTATATAAACACACATACATACACCCA [CACACA_site8592] | 8.98 ± 0.58
TTTTTTTTTCTTTGCACACAGATAACTTGAAATTTG [CACACA_site2185] | 8.58 ± 0.45
TTTTATAATTTATCTAAAAAAAAATAAAATAAAATG [TGCATGCA_negctrl_site429] | 8.505 ± 0.078
ATAAAATAAAATAAAAGTACATAAATATATATATAT [XGTACX_site6110] | 9.83 ± 0.28
ATAATTAATCCAAAATGTACTTACATTTTATATGAA [XGTACX_site8888] | 8.35 ± 0.44
AAATAATTCATATGTTGTACAGTAATTAAATTTTCT [XGTACX_site6343] | 8.48 ± 0.33
ATAAGGATCAGACACAAACACACATATATATATATA [CACACA_site558] | 10.1 ± 0.41
CGAATAAATATATGTAGTACATGTTGTAGATAATTT [XGTACX_site1218] | 8.79 ± 0.32
TCTTTCTATTAAACATGTACTTGTCTAAAGACATAA [XGTACX_site8564] | 8.59 ± 0.38
TATATATATTTAAATTGTACATATATTATTCATATG [XGTACX_site911] | 8.52 ± 0.33
AATAATATATATTACTGTACTAATATAAGGGACATC [XGTACX_site3744] | 8.98 ± 0.31
ATTTATGAAAAAAATACATGCATGTCCATATAAATT [TGCATGCA_site505] | 9.2 ± 0.3
TTGTCAAAAATTACACACATAAATGAATAAATAAAT [XGTACX_negctrl_site541] | 8.42 ± 0.54

Sequence | gcPBM binding intensity (ln)
TTATTTTCTACAAATTGTACATATTTTTTACTACTC [XGTACX_site1394] | 8.91 ± 0.45
TAATATATATGTATGGCACACACGGATAAATATATA [CACACA_site930] | 8.8 ± 0.44
AAAAAAAATATGAAAACACACATATATAAATAAATA [CACACA_site113] | 8.54 ± 0.36
CATGCCTTTAAAAAGGTGCAAACATTTTCACAAACA | 8.95 ± 0.43
AACAAAATAAGACACACACACAAATGTACCTATATA [CACACA_site7189] | 8.49 ± 0.44
TCTTTTTTAAATAAAAGTACAAAAAAAAATAAAAAA [XGTACX_site2670] | 8.59 ± 0.48
ATGTAATTCTTTTACTTTTTTTTTTTTTTTTTTTTT [CACACA_negctrl_site979] | 8.77 ± 0.19
CAAACAAATATATGTTGTACTTATTATATATACATA [XGTACX_site2998] | 8.38 ± 0.33
TTATCATATGTATGCATACACACAAAAAATTATATA [CACACA_site397] | 8.6 ± 0.45
ATAAATGAGCCATATTAAATCCGTTACACGGGTGTG [CACACA_negctrl_site1368] | 8.12 ± 0.39
AAATTATTTTGTTATCATTATATATAGATTGAATAT [XGTACX_negctrl_site165] | 8.38 ± 0.62
AACGGGTAATGCACAAAAAAAAAAAAATAAAATAAA [TGCATGCA_negctrl_site474] | 8.6 ± 0.4
TTCTTTTAAATTAGCTGTACGGTTTTCTACATGCAT [XGTACX_site356] | 9.51 ± 0.28
TACAATATATTTATAGTGCATATTACTTTTAACTTT | 8.22
TCGTAATAATATAAATGTACTTTATTAATTAAAAGA [XGTACX_site3416] | 8.2 ± 0.4
ATAACAAAAATCCTTGTGCACTATTTTAATAGAGTC | 9.06 ± 0.38
ACATTGCACCCGTGCACACATAGAAAAATAATTCTT [CACACA_site409] | 8.52 ± 0.15
GTAGTCCAAAAAAAGCGTACACAGAAAAAAAAAAAA [XGTACX_site4273] | 8.63 ± 0.41
CATTATGATTAAATATGTACATATTATTATATAAAT [XGTACX_site2477] | 8.41 ± 0.42
TACATCTTACTACTTATAATATAATATAGTATGAAT [TGCATGCA_negctrl_site8] | 8.21 ± 0.43
